Laboratory results reported in PubChem BioAssay AID1745853 (National Center for Advancing Translational Sciences (NCATS), 2022).
The list shows a part of the results. Further columns of the screen follow, without active or inactive calls.

Tests used:
Assay in all cases: Primary Screen for Target Class Profiling of Small Molecule Inhibitors of Methyltransferases
[1] = molecular target: Glycine N-methyltransferase (Homo sapiens) (UniProt Q14749); settings: purified enzyme, MTase-Glo SAH luminescence; measured here: GNMT inhibition; at 40 µM; stronger effect = lower value
Method in brief: (§1)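 Each enzyme was assayed with SAM and its substrate. SAH formation detected by MTase-Glo luminescence; single-point 40 uM screen[…].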

[2] = molecular target: Guanidinoacetate N-methyltransferase (Homo sapiens) (UniProt Q14353); settings: purified enzyme, MTase-Glo SAH luminescence; measured here: GAMT inhibition; at 40 µM; stronger effect = lower value
Method in brief: as §1

[3] = molecular target: Histamine N-methyltransferase (Homo sapiens) (UniProt P50135); settings: purified enzyme, MTase-Glo SAH luminescence; measured here: HNMT inhibition; at 40 µM; stronger effect = lower value
Method in brief: as §1

[4] = molecular target: Nicotinamide N-methyltransferase (Homo sapiens) (UniProt P40261); settings: purified enzyme, MTase-Glo SAH luminescence; measured here: NNMT inhibition; at 40 µM; stronger effect = lower value
Method in brief: as §1

[5] = molecular target: Phenylethanolamine N-methyltransferase (Homo sapiens) (UniProt P11086); settings: purified enzyme, MTase-Glo SAH luminescence; measured here: PNMT inhibition; at 40 µM; stronger effect = lower value
Method in brief: as §1
On the % scale 0 is the no-effect control and ±100 the full control effect.

Row | SMILES | activity change, negative = inhibition [1] [%] | activity change, negative = inhibition [2] [%] | activity change, negative = inhibition [3] [%] | activity change, negative = inhibition [4] [%] | activity change, negative = inhibition [5] [%]
1 | CCc1cccc(N2C(=O)c3c(C(=O)OC)ncn3CC2(C)C(=O)NC2CCCCC2)c1 (stereo not given) | 3.89 | 0 | 3.71 | 9.38 | 4.11
2 | Cc1ccccc1CN1C[C@H](O)C[C@H]1c1nc(C2CC2)no1 | -1.59 | -2.16 | 0.909 | -8.36 | -2.08
3 | CCOCCCNc1nc2c(-c3ccc(Cl)cc3)nnn2c2ccccc12 | 4.03 | 0.318 | 10.3 | 12.8 | 1.63
4 | O=C(OCc1ccccc1O[C@@H]1O[C@H](CO)[C@@H](O)[C@H](O)[C@H]1O)C1(O)C=CCCC1O (stereo not given in full) | 2.57 | 3.58 | 7.03 | -9.49 | 6.11
5 | COc1ccc2cc3n(c2c1)CC(C)(C(=O)NC1CCCCC1)N(Cc1cccnc1)C3=O (stereo not given) | 2.56 | 4.94 | 7.32 | 1.36 | 2.19
6 | CCC(C(=O)NCc1ccc(F)cc1)n1ccc2cc(S(=O)(=O)N3CCCCC3)ccc21 (stereo not given) | 9.49 | 0.976 | 7.7 | 8.27 | 7.18
7 | Brc1cc2c(cc1[C@H]1Nc3ccccc3[C@H]3C=CC[C@H]31)OCO2 | -0.735 | 10.5 | 4.56 | -8.67 | 1.57
8 | COc1ccc(CNC(=O)Cn2ccc3cc(S(=O)(=O)N4CCC(C)CC4)ccc32)cc1OC | -4.77 | 4.92 | -1.51 | -0.598 | 2.63
9 | Cc1ccc(NC(=O)CSc2nnc3n(CCC(C)C)c(=O)c4ccccc4n23)cc1C | -4.83 | 3.71 | 3.44 | 0.681 | 0.334
10 | Cc1cccc(CN2C(=O)c3ccc(-c4ccco4)n3CC2(C)C(=O)NC2CCCCCCC2)c1 (stereo not given) | -16 | 4.55 | -10.5 | -18.3 | -3.75
11 | Cc1nc(C)c(C(=O)N2CCC(Cc3nc(C4CC4)n[nH]3)CC2)s1 | -2.65 | -1.53 | 0.765 | 0.36 | -2.67
12 | CCOCCCN1C(=O)c2cc3oc(C)cc3n2CC1(C)C(=O)NC1CCCCCC1 (stereo not given) | 3.72 | 1.52 | 9.82 | 0.619 | 2.47
13 | O=C(NCCCCCCNC(=O)c1cccnc1)c1cccnc1 | -1.74 | 1.14 | 1.21 | 5.86 | -5.56
14 | COc1ccc(-c2cc3n(n2)CC(C)(C(=O)NCc2ccccc2)N(c2ccc(C)c(Cl)c2)C3=O)cc1 (stereo not given) | 4.34 | 0.995 | 6.21 | 4.33 | 0.577
15 | O[C@@H]1CCN(Cc2nc(C3(O)CCN(Cc4ccccc4F)CC3)cs2)C1 | -2.84 | -4.12 | -3.51 | -8.19 | -7.69
